Measured values from PMC4336329 (PLoS ONE, 2015).
About 14,000 (4.5%) of roughly 310,000 compounds showed an effect of 50% or more. Effects have a minus sign here. The list shows a part of the results.

molecular target: human ether-à-go-go-related gene (hERG) potassium channel (human, UniProt Q12809); assay: primary screen, population patch clamp on CHO cells stably expressing hERG
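Also: peak tail current of the secondary pulse compared with the same well before compound.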

Sequence of human ether-à-go-go-related gene (hERG) potassium channel (Q12809 whole entry, looked up): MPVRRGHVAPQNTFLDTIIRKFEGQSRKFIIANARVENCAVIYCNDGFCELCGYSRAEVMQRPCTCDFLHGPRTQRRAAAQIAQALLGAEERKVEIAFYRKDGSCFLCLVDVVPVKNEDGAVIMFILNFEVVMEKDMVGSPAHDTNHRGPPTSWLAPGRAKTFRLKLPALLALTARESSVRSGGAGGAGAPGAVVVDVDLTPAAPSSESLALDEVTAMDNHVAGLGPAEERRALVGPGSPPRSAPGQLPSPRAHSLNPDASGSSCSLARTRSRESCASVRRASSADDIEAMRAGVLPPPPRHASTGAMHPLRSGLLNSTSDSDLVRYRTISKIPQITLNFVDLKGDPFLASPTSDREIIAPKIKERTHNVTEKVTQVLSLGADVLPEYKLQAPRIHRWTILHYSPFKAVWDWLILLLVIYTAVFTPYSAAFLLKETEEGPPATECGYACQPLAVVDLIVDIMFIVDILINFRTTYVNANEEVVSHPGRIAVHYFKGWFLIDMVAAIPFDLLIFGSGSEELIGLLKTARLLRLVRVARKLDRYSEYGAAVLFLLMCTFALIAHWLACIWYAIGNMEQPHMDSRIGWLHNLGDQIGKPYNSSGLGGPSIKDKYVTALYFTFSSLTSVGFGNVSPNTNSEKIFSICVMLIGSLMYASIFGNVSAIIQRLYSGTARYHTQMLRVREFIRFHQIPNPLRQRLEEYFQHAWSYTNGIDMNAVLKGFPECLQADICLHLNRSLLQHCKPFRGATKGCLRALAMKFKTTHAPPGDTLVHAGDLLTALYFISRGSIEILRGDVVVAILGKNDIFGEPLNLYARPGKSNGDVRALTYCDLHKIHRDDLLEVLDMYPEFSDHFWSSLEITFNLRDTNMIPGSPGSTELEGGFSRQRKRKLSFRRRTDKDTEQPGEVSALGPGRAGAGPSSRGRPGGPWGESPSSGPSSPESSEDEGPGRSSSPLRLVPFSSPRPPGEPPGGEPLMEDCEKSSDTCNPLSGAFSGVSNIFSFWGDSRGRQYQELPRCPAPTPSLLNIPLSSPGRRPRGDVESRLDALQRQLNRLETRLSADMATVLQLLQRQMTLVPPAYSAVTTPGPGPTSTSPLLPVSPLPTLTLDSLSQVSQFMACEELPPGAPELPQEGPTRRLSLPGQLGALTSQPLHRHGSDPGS

Compound	hERG current change (%, negative = inhibition) at 10uM [%]
Clc1ccc(OCCCCN2CCCCC2)cc1.O=C(O)C(=O)O	-65.5
CCn1c(CNc2ccc(F)cc2)nnc1SCC#N	7.71
COc1cc(C2/C(=C(\O)c3ccc4c(c3)CC(C)O4)C(=O)C(=O)N2CCN2CCOCC2)cc(OC)c1OC (stereo not drawn)	-3.37
COc1ccccc1OCC(O)CN1C(=O)NC(C)(C)C1=O (stereo not drawn)	20.7
O=C1CCC(O)CCN1CCSc1ccccc1 (stereo not drawn)	6.72
O=C(Cc1cn2ccsc2n1)Nc1ccccc1Oc1ccccc1	-27.4
Cc1ccc(C(=S)NCS(=O)(=O)c2ccc(C)cc2)cc1	6.25
Cn1c(CNc2ccc(Cl)cc2)nnc1SCc1ccccc1	10.2
COc1ccc2nc(C)cc(Nc3ccc(C)cc3)c2c1.Cl	-52.8
COc1ccc(-c2csc(NC(=O)c3ccc(S(=O)(=O)N4CCc5ccccc5C4)cc3)n2)cc1	5.11
CC1CCN(c2ccc(S(=O)(=O)NC3=NCCCCC3)cc2[N+](=O)[O-])CC1	-11.2
CC1(C)Cc2c(sc(NC(=O)C(=O)N3CCCC3)c2C#N)CO1	20.2
CC(C)(C)C(=O)N1CCC[C@H]1C(O)(c1ccccc1)c1ccccc1	-28.5
CCCn1c(N)c(C(=O)CSc2nc3ncc(Cl)cc3[nH]2)c(=O)n(C)c1=O	10.3
CN(C)c1ccc(C(=O)OCC(=O)NCC2CCCO2)cc1 (stereo not drawn)	-4.33
O=C(CN1CCN(c2ccccn2)CC1)Nc1nc2ccccc2s1	-47.7
CCCN1CNC(=S)N(c2ccccc2OCC)C1	5.61
CC(=O)Oc1ccc2c(=O)c(Oc3ccccc3[N+](=O)[O-])coc2c1	15.4
O=c1[nH]c2cc(C(F)(F)F)ccc2n1-c1cc(C(F)(F)F)ccc1O	3.63

Compound	hERG current change (%, negative = inhibition) at 10uM [%]
CC(C)N(CCc1ccncc1)C(=S)Nc1cccc(Cl)c1	-71.3
COc1ccc(CSc2nc(C)cc(C)c2C#N)cc1	26.6
COc1ccc(C(OC(=O)c2ccco2)C(=O)NC(C)(C)C)cc1 (stereo not drawn)	72.2
Cc1cccc(C(CC(=O)N2CCCCC2)c2ccccc2)c1O (stereo not drawn)	-34.2
c1ccc(Oc2ccc3ccccc3n2)cc1	-14.7
COc1ccc(-c2csc(/N=C/N(C)C)n2)cc1OC	16.1
COc1ccc(-n2nc3c(c2NC(=O)c2ccc(S(=O)(=O)N4CCOCC4)cc2)CS(=O)C3)cc1 (stereo not drawn)	8.18
CCCn1c(C2CC(=O)N(c3ccc(C)cc3)C2)nc2ccccc21 (stereo not drawn)	-52.9
Cc1cc(C(=O)COC(=O)c2ccc(O)cc2)c(C)n1-c1ccccc1F	14.6
CC(C)c1ccc(NC(=S)NC2CCN(Cc3ccccc3)CC2)cc1	-17.4
COCCNc1nc2sc3c(c2c(=O)n1Cc1ccco1)CCCCC3	16.4
O=C(COC(=O)CCN1C(=O)C2CC=CCC2C1=O)Nc1ccc(Cl)cc1F (stereo not drawn)	-31.9
CN(c1ccccc1)S(=O)(=O)c1cccc(C(=O)OCC(=O)Nc2ccc3[nH]c(=O)[nH]c3c2)c1	19.6
COc1ccc(OCCCC(=O)NC(C)c2ccccc2)cc1 (stereo not drawn)	8.04
Cc1n[nH]c(C)c1N1C(=O)c2cccc3cc(Br)cc(c23)C1=O	11.7
CC(C)NNC(=O)c1ccncc1.O=P(O)(O)O	20.4
Br.CC(C)(C)C(=O)CN1C2=NCCCN2c2ccccc21	-75.8
O=C(Oc1ccc([N+](=O)[O-])cc1)c1ccc(Cl)c(S(=O)(=O)N2CCCCC2)c1	18.5
CN(Cc1nc2ccccc2c(=O)[nH]1)c1ccccc1	4.03

Compound	hERG current change (%, negative = inhibition) at 10uM [%]
Cc1ccc(N(C(=O)CNC(=O)c2ccco2)C(C(=O)NC2CCCCC2)c2cccnc2)cc1C (stereo not drawn)	15
CCc1ccc(OCC(=O)N/N=C(\C)c2ccccc2OC(F)F)cc1	14.1
CCN(CC(=O)Nc1ccc(NC(C)=O)cc1)C(=O)/C=C/c1ccc([N+](=O)[O-])cc1	-44.9
CCOC(=O)CNc1nc(Cl)nc(NC(C)(C)C)n1	18.7
COc1ccc(S(=O)(=O)Nc2nnc(CC(C)(C)C)s2)cc1	9.63
CCn1nccc1C(=O)Nc1ccc(S(=O)(=O)NC23CC4CC(CC(C4)C2)C3)cc1	-4.84
O=S(=O)(Cc1cc(-c2ccc(Cl)cc2)no1)c1ccccc1	0.608
CCn1cc(C(=O)N[C@@H](CCSC)C(=O)NCCOC)c(=O)c2cc3c(cc21)OCO3	11.1
CCOC(=O)CC1(NC(=O)C2CCC(=O)N(C3CC3)C2)CCCCC1 (stereo not drawn)	19.4
Cc1cccc(C)c1NC(=O)COC(=O)c1cc(=O)c2ccccc2o1	5.2
Cc1c(C(=O)N2CCN(CCc3ccccc3)CC2)oc2ccccc12	-72.4
Cc1ccc(NC(=O)CSc2nc3ncc(Cl)cc3[nH]2)c(C)c1	13.7
CCOCCCNC(=O)c1c[nH]c2ccc(S(=O)(=O)Nc3cccc(OC)c3)cc2c1=O	25.6
COc1ccccc1NS(=O)(=O)c1ccc(NC(=O)N2CCCCC2)cc1	1.69
O=C(Nn1c(-c2ccc(Br)cc2)nc2ccccc2c1=O)c1cccnc1	6.18
CN1CCC(NC(=O)c2ccncc2)CC1	4.31
C1=CC2CC1CC2CNCc1ccco1.Cl (stereo not drawn)	4.12
COC(=O)c1ccccc1NC(=O)CSc1nnc(-c2cccnc2)o1	-6.93
Nc1ccccc1-c1nnc2n1CCCCC2	25.8
